In paper PMC4336329 (PLoS ONE, 2015):
Screen size: about 310,000 compounds; about 2,200 (0.71%) showed an effect of 50% or more. The effect is printed as a negative number. Some of the results follow.

These compounds were tested against human ether-à-go-go-related gene (hERG) potassium channel (human, UniProt Q12809) (assay: primary screen, population patch clamp on CHO cells stably expressing hERG).
Chain of human ether-à-go-go-related gene (hERG) potassium channel (Q12809 whole entry, looked up): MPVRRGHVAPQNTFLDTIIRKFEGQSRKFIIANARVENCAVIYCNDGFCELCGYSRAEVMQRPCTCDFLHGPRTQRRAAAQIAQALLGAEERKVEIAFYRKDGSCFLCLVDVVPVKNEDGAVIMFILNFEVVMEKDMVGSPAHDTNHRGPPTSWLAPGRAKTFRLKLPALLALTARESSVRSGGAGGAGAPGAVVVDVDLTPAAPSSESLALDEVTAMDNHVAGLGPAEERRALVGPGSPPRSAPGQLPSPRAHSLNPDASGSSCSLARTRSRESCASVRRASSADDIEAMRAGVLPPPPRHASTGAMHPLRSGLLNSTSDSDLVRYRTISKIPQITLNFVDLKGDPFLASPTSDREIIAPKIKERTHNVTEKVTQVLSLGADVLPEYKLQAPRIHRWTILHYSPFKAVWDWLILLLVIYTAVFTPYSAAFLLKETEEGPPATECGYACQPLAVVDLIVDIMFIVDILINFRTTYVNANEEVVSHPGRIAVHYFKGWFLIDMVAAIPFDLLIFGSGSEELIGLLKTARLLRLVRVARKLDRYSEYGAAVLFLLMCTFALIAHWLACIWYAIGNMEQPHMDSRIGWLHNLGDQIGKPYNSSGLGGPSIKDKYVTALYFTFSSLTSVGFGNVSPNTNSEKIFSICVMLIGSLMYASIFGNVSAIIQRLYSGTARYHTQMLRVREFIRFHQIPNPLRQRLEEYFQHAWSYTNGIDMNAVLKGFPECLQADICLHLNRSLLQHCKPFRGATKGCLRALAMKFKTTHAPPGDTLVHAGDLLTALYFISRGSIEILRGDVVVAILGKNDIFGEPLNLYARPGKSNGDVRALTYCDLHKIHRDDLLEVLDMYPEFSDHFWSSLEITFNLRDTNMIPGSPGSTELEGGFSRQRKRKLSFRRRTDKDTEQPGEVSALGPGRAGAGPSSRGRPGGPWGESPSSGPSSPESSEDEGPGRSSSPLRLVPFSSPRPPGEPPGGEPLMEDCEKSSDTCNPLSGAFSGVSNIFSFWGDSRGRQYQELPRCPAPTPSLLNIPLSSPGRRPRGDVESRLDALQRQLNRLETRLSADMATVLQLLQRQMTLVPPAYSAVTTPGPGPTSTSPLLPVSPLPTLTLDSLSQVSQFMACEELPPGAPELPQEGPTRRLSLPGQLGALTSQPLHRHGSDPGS

| SMILES | hERG current change (%, negative = inhibition) at 1uM [%] |
| --- | --- |
| CCOc1ccc(C(C)=O)cc1COc1ccc(C)nc1[N+](=O)[O-] | 10.6 |
| CC(C)(C)OC(=O)N1CC2Cc3[nH]c(=O)ccc3C(C2)C1 (centres unmarked) | 7.84 |
| CC(C)(C)NC(=O)NC(=O)COC(=O)C1CCN(S(=O)(=O)c2cccs2)CC1 | 8.63 |
| CCOc1ccc(C(C)NC(=O)C2CCCC2)cc1 (centres unmarked) | 12.5 |
| Cc1ccc2ccc(C3C(=O)c4ccccc4C3=O)nc2c1 | 15 |
| CCCCn1c(C23CC4CC(CC(C4)C2)C3)n[nH]c1=S | 14.3 |
| N#CC1=C2N=C(N)c3ccccc3N2C2=C(C(=O)CCC2)C1c1ccc(Cl)cc1 (centres unmarked) | 1.04 |
| COC(=O)c1cccc(OCC(O)Cn2ccnc2)c1 (centres unmarked) | 0.869 |
| NC(=O)C1CC=CCC1C(=O)OCC(Cl)=C(Cl)Cl (centres unmarked) | 25 |
| Cc1cc(OCC(=O)NCc2cccnc2)c2c(C)c(Cc3ccccc3)c(=O)oc2c1 | -1.63 |
| Cc1ccc(S(=O)(=O)N2CCCCC2)cc1NC(=O)c1ccc2c(=O)n3c(nc2c1)CCCCC3 | -14.6 |
| C=CCn1c(SCc2cc(=O)n3ccsc3n2)nc2scc(C3CC3)c2c1=O | 4.18 |
| COC(=O)CNC(=O)COC(=O)c1cc(Cl)cc(Cl)c1N | 5.66 |
| CCn1c(CNC(=O)c2ccco2)nnc1SCC(=O)Nc1cccc(F)c1 | 0.364 |
| CC(=O)c1c(C)nn(C(C)CC(=O)O)c1C (centres unmarked) | 3.06 |
| COC(=O)c1c(NC(=O)c2ccco2)sc(C(=O)Nc2ccc(F)cc2)c1C | 7.56 |
| CC(=O)Nc1ccc(C(=O)OCC(=O)N(C)C2CCCCC2)cc1 | 11.6 |
| CCC(C)C1=CC(=Nc2c(C)n(C)n(-c3ccccc3)c2=O)C=C(C(C)CC)C1=O (centres unmarked) | 12.5 |
| CC(C)N(Cc1ccccc1)C(=O)CSc1nccn1C | 11 |
| CCCC(=O)N1c2ccccc2[C@@H](N(C(C)=O)c2ccccc2)C[C@H]1C | 8.99 |
| O=C(CSc1n[nH]c(=O)[nH]c1=O)Nc1ccc(Br)cc1Br | 8.17 |
| Cc1cc(C)c(C(=O)O)c(Cl)n1 | 8.85 |

| SMILES | hERG current change (%, negative = inhibition) at 1uM [%] |
| --- | --- |
| O=C(CS(=O)(=O)Cc1ccccc1)Nc1nc2c(s1)CCCC2 | 3.41 |
| CC(/C=C1\SC(=S)N(NC(=O)c2ccc(O)cc2)C1=O)=C\c1ccccc1 | 0.121 |
| COc1cccc2cc(C(=O)NCc3ccccc3Cl)c(=O)oc12 | 12.5 |
| Cc1onc(-c2c(Cl)cccc2Cl)c1C(=O)Nc1ccc(N2CCOCC2)cc1 | 9.99 |
| C/C(=N\NC(=O)c1cccs1)c1ccc(C(=O)O)s1 | 19.7 |
| Nc1cccc(C(=O)Nc2ccco2)c1 | -3.67 |
| CSc1nnnn1-c1c(C)cccc1C | 12.5 |
| COc1cccc(C2C3=C(N=c4s/c(=C\c5cccc(O)c5)c(=O)n42)c2ccccc2CC3)c1OC (centres unmarked) | 17.2 |
| Cn1ccc2ccc(C3=CC(=O)C[C@H](c4ccc(F)cc4)C3)cc21 | 4.22 |
| COC(C[C@@H]1O[C@H]1C(=O)[C@@H](C)OCc1ccccc1)OC | 15.5 |
| C=CCOC(=O)c1ccc(N2CCN(c3ccccc3)CC2)nc1 | 16.1 |
| CCCC(=O)Nc1ccc(-c2cn3cccnc3n2)cc1 | 16.4 |
| CC(=O)CCc1ccc(OCCCOc2cccc3cccnc23)cc1 | 9.3 |
| CCOC(=O)C1=C(C)NC(=S)N(C=O)C1c1ccccc1 (centres unmarked) | 22.3 |
| CCn1cc(C(=O)NCc2ccco2)c(=O)c2ccc(C)nc21 | 12.7 |
| C=CCNC(=O)/C(C#N)=C/c1ccc(OS(=O)(=O)c2ccc(C)cc2)c(OC)c1 | 14.4 |
| O=C(NCc1ccco1)/C(=C/c1cccnc1)NC(=O)c1cccc(Br)c1 | -13.2 |
| CCC1CCCCN1CCCNC(=O)c1cc2c(Cl)nc3ccccc3c2s1 (centres unmarked) | -49.5 |
| CC(=O)c1cccc(NC(=O)COc2ccc(S(=O)(=O)N3CCOCC3)cc2)c1 | 3.97 |
| O=C(CC1C(=O)Nc2ccccc2N1CC(=O)N1CCCC1)Nc1ccc(Br)cc1 (centres unmarked) | 3.28 |
| CC(C)c1nc(SCC(=O)N2CCCC2)c2c(=O)n(C)c(=O)n(C)c2n1 | 8.45 |
| C=CCn1c(SCC(=O)N(C)C2CCS(=O)(=O)C2)nnc1-c1ccccc1 (centres unmarked) | 16.2 |
